The supplement of paper PMC3334620
In all, about 33,000 sequences were measured (“E-score (-0.5 to 0.5)”: median about -0.012, highest 2% from about 0.29 on). This is one part of the list.

target: T1, Ybr033w (UniProt P38073); experiment: PBM E-score (8-mer binding enrichment) (E-score (-0.5 to 0.5)); higher = stronger / more preferred TF binding; most listed sequences are background and not binding sites; settings: protein concentration: 200 nM; construct: GST-full length
T1 sequence: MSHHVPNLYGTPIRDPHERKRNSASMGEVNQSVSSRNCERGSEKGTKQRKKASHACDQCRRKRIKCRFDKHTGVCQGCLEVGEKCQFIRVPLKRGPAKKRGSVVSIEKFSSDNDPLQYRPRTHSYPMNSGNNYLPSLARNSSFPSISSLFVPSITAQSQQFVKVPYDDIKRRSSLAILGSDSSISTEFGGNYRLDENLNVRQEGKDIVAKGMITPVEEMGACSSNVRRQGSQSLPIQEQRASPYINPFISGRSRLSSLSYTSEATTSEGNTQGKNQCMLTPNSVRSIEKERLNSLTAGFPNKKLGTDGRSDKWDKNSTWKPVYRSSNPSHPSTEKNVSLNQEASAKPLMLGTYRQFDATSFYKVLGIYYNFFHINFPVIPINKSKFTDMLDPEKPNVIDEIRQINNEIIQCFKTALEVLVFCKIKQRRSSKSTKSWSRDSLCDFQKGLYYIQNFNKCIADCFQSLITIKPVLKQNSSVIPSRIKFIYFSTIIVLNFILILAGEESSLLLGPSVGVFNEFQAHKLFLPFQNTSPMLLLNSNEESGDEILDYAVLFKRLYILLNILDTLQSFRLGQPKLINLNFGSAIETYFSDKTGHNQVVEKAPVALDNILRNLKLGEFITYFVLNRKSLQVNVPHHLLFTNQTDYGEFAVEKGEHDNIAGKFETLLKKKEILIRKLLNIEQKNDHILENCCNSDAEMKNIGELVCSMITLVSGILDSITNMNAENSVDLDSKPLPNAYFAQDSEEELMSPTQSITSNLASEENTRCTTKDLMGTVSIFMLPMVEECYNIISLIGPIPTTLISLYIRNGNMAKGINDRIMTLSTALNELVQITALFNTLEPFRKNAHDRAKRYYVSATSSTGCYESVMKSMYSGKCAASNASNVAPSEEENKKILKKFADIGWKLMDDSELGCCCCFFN
Method in brief: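 For each ungapped eight-base word taken together with its reverse complement, the Universal PBM Analysis Suite assigned an E-score. Binding data came from GST-tagged yeast transcription factors, applied at about 100-200 nM, on universal all-10-mer Agilent arrays made double-stranded by primer extension. Fluorescent anti-GST marked bound protein, and scans were normalised with masliner.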

Sequence | PBM E-score
ACAGCCGA | -0.152
GAATGTAA | 0.229
CGCGCTAA | 0.196
CGAGCACA | 0.00514
CCAGTCGG | -0.0905
GATAGACA | 0.0674
ATCCTGTG | -0.0447
ATTAGTAC | 0.12
AAGTATGG | 0.0503
AATAATTA | 0.372
ATGGGCGG | 0.0599
CTAAGATC | 0.0586
GCGTCCGA | -0.16
GGTAGGTA | 0.0647
CCCAATAG | -0.111
AGCGTTTC | -0.113
GCAGATCC | -0.138
CCACATTC | 0.111
AGGGGGCC | -0.39
CATTAGCA | 0.169
CTTTCCGC | -0.136
AGGTGACT | -0.079
TGACCTAA | 0.104
ACCCGGTC | -0.293
ACTTATTC | 0.199

Sequence | PBM E-score
AAGCTTCG | 0.00914
CGCATGAC | -0.112
TCGTGCAA | 0.207
AAGTTGAT | 0.197
GAGGGTGC | -0.363
CCGGCTTC | -0.165
CATAATCA | 0.206
ACTGATGC | -0.131
AGTGTCTG | 0.0365
CCTCTCTC | -0.164
AATCAAGC | 0.0885
AGACACCC | 0.00615
CAACTTAC | -0.021
CTGGCCCA | -0.332
AGGTGTCG | -0.147
CATCAGGA | 0.194
AGCCGCTA | -0.0601
GGGAGGTA | -0.0849
TCAGAGCA | -0.114
GCACGGCA | -0.0804
AAATTCCA | 0.258
ATATGATA | 0.347
ACGCTGTG | -0.00213
ACAACAAC | 0.191
ACTCAAAT | 0.192

Sequence | PBM E-score
GACTTAAC | -0.216
AATTAATA | 0.429
GAGTGCGC | 0.00368
CGCTCCAG | -0.202
ATCACGTG | -0.0187
ATAATATA | 0.321
AGGGTTGC | -0.11
CAAGCGCC | -0.133
CACAGGAC | -0.0218
AGTAGTTC | 0.307
ACCTAGAG | -0.151
GTCGGGCA | -0.212
AAATCGAT | 0.0646
ACTTTAGG | -0.0326
CTTTGCAA | 0.103
GGCGCTAA | -0.127
CCTCTCAG | -0.337
GACTCCGC | -0.2
AGACGTTG | 0.0485
ACCCGTTG | -0.363
ACCGGAAC | 0.167
AAGAGAGG | -0.125
GAAAAGTC | 0.00194
AGAATGCT | 0.0947
AAATGTTG | -0.0479

Sequence | PBM E-score
TACATGGA | 0.0511
CCAGCCAC | -0.00942
CCCCGTAA | 0.0291
GAGCCTAC | -0.126
ATGAAACG | 0.13
ATTATTGA | 0.151
AGCAAAGC | -0.0264
TAACATTA | 0.209
TGCGAAAA | 0.219
CCTCACGA | -0.174
GTCCGGGA | 0.0146
ATAATTCC | 0.348
CCAATATC | 0.0188
ATCTCACA | 0.102
ACCTACCC | -0.152
CGTGCGAC | -0.188
TAGGACCA | -0.153
CATCCAAA | -0.0492
ATTATATG | 0.289
AGTGGCAG | 0.0137
CACTTCGG | 0.0966
GGTTCTCA | 0.0316
CCCCGTAG | -0.175
CTCAATGA | 0.127
GAGAAACC | 0.13

Sequence | PBM E-score
CTATCCCA | -0.144
ACCTATGG | -0.0204
AGTAATTA | 0.232
CCTCCTTA | -0.179
AGACGAGG | -0.279
TAAACGTA | 0.189
AACTCTTC | 0.0765
ATCGCGTA | -0.0199
ATAACGCC | 0.0172
ACTGTTCG | 0.148
ACGTGTGA | -0.113
AACCGGTG | -0.285
CTCGTACA | 0.139
TAGTTTGA | 0.139
TATTCACA | 0.188
CGGGAATC | -0.0584
GCTGGGCC | -0.434
CACTCGCG | -0.0339
ATGTGGAA | 0.235
GGAATAAC | 0.453
CTGGTTAA | 0.138
CCTCTTAG | 0.107
CGGTCAAC | -0.00135
GACAACCA | 0.0855
CAACTGAG | 0.0852

Sequence | PBM E-score
ACTTCAGA | -0.00082
TAGCGCCA | -0.165
TAGGGATA | 0.112
GAAGCCGA | -0.0127
AGACGCCG | -0.194
GGCATCGA | -0.139
CGGCCCAC | -0.206
AATACACA | 0.191
CCCTCCGC | -0.228
AGAGTGTA | -0.0527
AAAGGTCT | 0.0234
ATAGAACA | 0.0739
CCTGTTAA | -0.0364
AGCGGCAG | -0.223
CCAATCAG | -0.161
CGTCACTA | -0.0312
ATGTACTA | 0.213
ACTAAGGC | -0.0699
ACCTTTAG | -0.0576
CCGTGTTA | 0.0956
GTAGCGGA | 0.146
ATTGGCAA | 0.107
CTGGTCGC | -0.0833
CGTCGGGA | -0.0352
ATTTCCCG | 0.257

Sequence | PBM E-score
ACGCGGAT | 0.141
AAAGCGCT | 0.15
ATCACGCA | 0.0227
TAGAGGAA | 0.0471
AACTGTGT | 0.137
GCTTGACA | -0.0917
AGCAAGCA | -0.116
GACGCTGA | -0.0215
ACGGCCAT | -0.197
GCCCCCGC | -0.294
GGTTACCA | 0.0295
CGAGCAAC | -0.0054
TCCATGAA | 0.162
GTCGATTA | 0.14
TCACGTAA | 0.00198
CGGCCAAA | -0.0249
CACCGCTA | -0.0953
ATTGTTAA | 0.231
CTGTTAAG | -0.107
GCGCATTA | 0.142
AGATCTTA | 0.159
GTTACTCA | 0.0586
